These are yes or no findings as the source states them, for the method shown. Some entries that bind do so weakly or less than the wild type.

Assay [1] addresses T1, OsPRR1 (rice) (UniProt Q689G9).
T1 sequence: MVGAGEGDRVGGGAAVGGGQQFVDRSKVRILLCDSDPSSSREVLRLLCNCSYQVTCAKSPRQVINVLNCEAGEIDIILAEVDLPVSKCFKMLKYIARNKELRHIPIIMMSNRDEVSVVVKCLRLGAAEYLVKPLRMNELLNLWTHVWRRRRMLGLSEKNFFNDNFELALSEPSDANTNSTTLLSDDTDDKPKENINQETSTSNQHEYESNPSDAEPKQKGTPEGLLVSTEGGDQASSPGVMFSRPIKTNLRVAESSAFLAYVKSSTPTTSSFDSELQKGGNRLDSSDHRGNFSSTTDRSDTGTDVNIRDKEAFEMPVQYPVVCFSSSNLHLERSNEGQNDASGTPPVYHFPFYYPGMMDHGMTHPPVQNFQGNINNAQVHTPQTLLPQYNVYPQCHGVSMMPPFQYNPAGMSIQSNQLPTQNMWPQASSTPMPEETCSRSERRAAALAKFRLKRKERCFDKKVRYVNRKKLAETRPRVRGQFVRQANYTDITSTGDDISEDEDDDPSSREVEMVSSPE
The assay can be described thus: two-hybrid; β-galactosidase filter lift assay (LacZ reporter) of the co-transformed yeast colonies, X-gal as substrate, 30 °C in the dark.

The target in assay [2] is T1, OsPRR1 (rice). Nature of the assay: two-hybrid; S. cerevisiae AH109; bait in pGBD-C1 (GAL4 binding domain; written as target), prey in pGAD-C1 (GAL4 activation domain; written as binder); serial dilutions spotted on triple drop-out medium with 5 mM 3-AT (HIS3) and quadruple drop-out medium (ADE2), 30 °C; growth on quadruple drop-out shows strong interaction.
The next assay deals with T2, OsPRR73 (rice) (UniProt Q10N34).
T2 sequence: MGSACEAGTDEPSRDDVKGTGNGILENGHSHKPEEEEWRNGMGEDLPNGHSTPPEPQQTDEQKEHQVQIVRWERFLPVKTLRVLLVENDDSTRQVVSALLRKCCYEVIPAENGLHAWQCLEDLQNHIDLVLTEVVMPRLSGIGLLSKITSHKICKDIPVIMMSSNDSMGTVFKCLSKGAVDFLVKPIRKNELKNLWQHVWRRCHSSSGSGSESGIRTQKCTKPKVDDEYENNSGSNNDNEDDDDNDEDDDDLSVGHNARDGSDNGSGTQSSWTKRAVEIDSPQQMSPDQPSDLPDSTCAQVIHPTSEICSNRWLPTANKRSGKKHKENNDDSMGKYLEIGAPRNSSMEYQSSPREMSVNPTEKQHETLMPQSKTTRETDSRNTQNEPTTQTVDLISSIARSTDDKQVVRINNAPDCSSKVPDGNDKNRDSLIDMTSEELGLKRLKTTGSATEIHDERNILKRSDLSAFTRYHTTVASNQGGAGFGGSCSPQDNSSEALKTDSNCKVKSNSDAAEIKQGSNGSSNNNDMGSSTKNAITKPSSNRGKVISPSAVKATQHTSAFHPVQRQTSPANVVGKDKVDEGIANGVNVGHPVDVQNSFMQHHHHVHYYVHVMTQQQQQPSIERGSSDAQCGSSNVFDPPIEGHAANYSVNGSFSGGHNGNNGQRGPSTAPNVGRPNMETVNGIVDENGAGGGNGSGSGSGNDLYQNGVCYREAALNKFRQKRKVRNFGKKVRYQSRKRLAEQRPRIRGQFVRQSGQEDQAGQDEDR
Described as above.

B1: OsPRR37 (protein, UniProt Q0D3B6 1-742)
chain: MMGTAHHNQTAGSALGVGVGDANDAVPGAGGGGYSDPDGGPISGVQRPPQVCWERFIQKKTIKVLLVDSDDSTRQVVSALLRHCMYEVIPAENGQQAWTYLEDMQNSIDLVLTEVVMPGVSGISLLSRIMNHNICKNIPVIMMSSNDAMGTVFKCLSKGAVDFLVKPIRKNELKNLWQHVWRRCHSSSGSGSESGIQTQKCAKSKSGDESNNNNGSNDDDDDDGVIMGLNARDGSDNGSGTQAQSSWTKRAVEIDSPQAMSPDQLADPPDSTCAQVIHLKSDICSNRWLPCTSNKNSKKQKETNDDFKGKDLEIGSPRNLNTAYQSSPNERSIKPTDRRNEYPLQNNSKEAAMENLEESSVRAADLIGSMAKNMDAQQAARAANAPNCSSKVPEGKDKNRDNIMPSLELSLKRSRSTGDGANAIQEEQRNVLRRSDLSAFTRYHTPVASNQGGTGFMGSCSLHDNSSEAMKTDSAYNMKSNSDAAPIKQGSNGSSNNNDMGSTTKNVVTKPSTNKERVMSPSAVKANGHTSAFHPAQHWTSPANTTGKEKTDEVANNAAKRAQPGEVQSNLVQHPRPILHYVHFDVSRENGGSGAPQCGSSNVFDPPVEGHAANYGVNGSNSGSNNGSNGQNGSTTAVNAERPNMEIANGTINKSGPGGGNGSGSGSGNDMYLKRFTQREHRVAAVIKFRQKRKERNFGKKVRYQSRKRLAEQRPRVRGQFVRQAVQDQQQQGGGREAAADR
Regarding B1, the results for the binding entry in the assay with OsPRR1 (rice) [1], in the assay with OsPRR1 (rice) [2] and with OsPRR73 (rice) were “binds”, “binds” and “no binding”, respectively.
